The campaign covered roughly 230,000 compounds. About 1,500 (0.65%) were called active. Inconclusive results, whose numbers are uncertain, are shown with a selection of clear calls. Calls follow the shape of the dose curve; as a rule, active = well fitted inhibition curve with a large enough effect; inconclusive = small, poorly fitted or top-dose-only effect; inactive = no such curve, though single readings can be large or run the other way. Potencies of inconclusive entries are doubtful fits and often do not repeat.
Biological target: Lethal(3)malignant brain tumor-like protein 1 (Homo sapiens) (UniProt Q9Y468)
UniProt Q9Y468, sequence (Q9Y468 whole entry, looked up): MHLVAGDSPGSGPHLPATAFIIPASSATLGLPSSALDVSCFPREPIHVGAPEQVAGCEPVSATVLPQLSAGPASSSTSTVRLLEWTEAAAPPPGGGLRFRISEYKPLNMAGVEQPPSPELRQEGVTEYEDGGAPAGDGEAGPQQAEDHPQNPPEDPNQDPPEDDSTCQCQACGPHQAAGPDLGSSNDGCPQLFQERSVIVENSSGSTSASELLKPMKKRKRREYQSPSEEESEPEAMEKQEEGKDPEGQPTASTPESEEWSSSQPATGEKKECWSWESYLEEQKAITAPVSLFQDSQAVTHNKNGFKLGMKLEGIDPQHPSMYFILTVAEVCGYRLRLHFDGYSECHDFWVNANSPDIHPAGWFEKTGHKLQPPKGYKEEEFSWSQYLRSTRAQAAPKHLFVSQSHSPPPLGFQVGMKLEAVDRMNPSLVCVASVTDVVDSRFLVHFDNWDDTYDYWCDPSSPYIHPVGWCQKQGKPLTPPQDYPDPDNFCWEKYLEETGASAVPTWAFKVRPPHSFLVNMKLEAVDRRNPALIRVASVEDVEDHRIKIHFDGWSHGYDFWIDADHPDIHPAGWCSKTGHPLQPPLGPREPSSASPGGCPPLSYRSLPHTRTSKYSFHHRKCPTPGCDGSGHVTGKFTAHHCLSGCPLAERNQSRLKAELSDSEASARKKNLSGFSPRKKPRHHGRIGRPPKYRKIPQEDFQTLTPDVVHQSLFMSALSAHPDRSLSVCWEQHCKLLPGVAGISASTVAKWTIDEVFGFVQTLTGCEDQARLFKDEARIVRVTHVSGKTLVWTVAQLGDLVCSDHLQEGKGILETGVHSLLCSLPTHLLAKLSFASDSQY
Assay: qHTS Assay for the Inhibitors of L3MBTL1; also: nearly all actives have a fitted effect of over 60% in size
Conditions: AlphaScreen L3MBTL1–H3K9me1 peptide binding; activity, negative = inhibition: at 57.1 µM (top of the series)
Outline: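 L3MBTL1 (50 nM) pre-complexed 30 min with biotinylated H3(1-15)K9me1 peptide (75 nM), then compounds added for 30 min at room temperature; AlphaScreen streptavidin donor/nickel chelate acceptor beads (10 ug/mL final) read after 30 min dark incubation.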
% is scaled to controls: 0 for no effect and ±100 for the full control effect; potency is read from the fitted curve at half-maximal effect; tags tell the direction and shape of the fitted curve.

| SMILES | Potency | activity, negative = inhibition |
| --- | --- | --- |
| Cc1ccc(C=C2C(=O)c3ccccc3C2=O)o1 | inconclusive: 12.6 µM [inhibitor, partial curve] |  |
| O=c1[nH]c(-c2cccnc2)nc2ccccc12 |  | inactive: -1.77% |
| COC(=O)c1ccc(C(=S)N2CCCCC2)cc1 |  | inactive: 0.837% |
| Cc1cccc(NC(=O)CNC(=O)c2ccc3nc[nH]c3c2)c1C | inconclusive: 22.4 µM [inhibitor, partial curve] |  |
| CCc1cc(C(=O)N=Nc2c(O)[nH]c3ccc([N+](=O)[O-])cc23)c2ccccc2n1 | inconclusive: 22.4 µM [inhibitor, partial curve] |  |
| COc1ccc(C(=O)Nc2ccc(S(=O)(=O)Nc3cnc4ccccc4n3)cc2)cc1 |  | inactive: -4.22% |
| Cc1cc(C)c(C#N)c(SCC(=O)Nc2ccc3c(c2)OCO3)n1 | inconclusive: 6.31 µM [inhibitor, single point] |  |
| c1n[nH]c(NC2=NCCC2)n1 | inconclusive: 31.6 µM [inhibitor, single point] |  |
| CC(=O)/C(=N\Nc1ccc(Cl)cc1Cl)Sc1nnc(-c2ccccc2)n1-c1ccccc1 | inconclusive: 7.08 µM [inhibitor, single point] |  |
| CN(C)CCSc1nc(N)c2c3c(sc2n1)CN(C)CC3 |  | inactive: -2.63% |
| O=C(c1ccc2c(c1)OCCO2)N1CCCCC1 |  | inactive: 2.87% |
| COC(=O)c1[nH]c2ccccc2c1NC(=O)C(C)N1CCN(C(=O)c2ccco2)CC1 (stereo unspecified) |  | inactive: 6.14% |
| COc1ccc2c(c1)Cc1sc(NC(=O)c3cccnc3)nc1-2 | inconclusive: 25.1 µM [inhibitor, single point] |  |
| c1coc(-c2nc(-c3ccco3)c(-c3ccco3)nc2-c2ccco2)c1 | active: 10 µM |  |
| Cc1ccc(S(=O)(=O)NCc2ccco2)cc1C(N)=O |  | inactive: 2.55% |
| COc1ccc(NC(=O)CSc2ncc(-c3ccc(F)cc3)n2Cc2ccco2)cc1 | inconclusive: 25.1 µM [inhibitor, single point] |  |
| CC(C)c1ccc(Nc2nnc(SCC(=O)c3nnc(-c4ccccc4)o3)s2)cc1 | inconclusive: 28.2 µM [inhibitor, partial curve] |  |
| Cc1nn(-c2ccccc2)c(N)c1C(c1ccccc1)c1c(C)nn(-c2ccccc2)c1N |  | inactive: -5.27% |
| c1ccc2c(c1)N1CCN=C1N2CCN1CCCCC1 |  | inactive: -0.844% |
| CCC(=O)N(Cc1ccco1)c1nc(-c2ccccc2)cs1 | inconclusive: 39.8 µM [inhibitor, single point] |  |
| CCN(CC(=O)Nc1ccc(OC)cc1)C(=O)c1ccc2c(=O)n3c(nc2c1)CCC3 |  | inactive: 3.28% |
| Cc1cc(C(=O)CN2C(=O)NC3(CCCCC3)C2=O)c(C)n1C | inconclusive: 0.447 µM [inhibitor, full curve, poor fit] |  |
| COc1cccc(-c2noc(CCC(=O)N3CCN(c4cc(C)ccc4C)CC3)n2)c1 | inconclusive: 35.5 µM [inhibitor, single point] |  |

| SMILES | Potency | activity, negative = inhibition |
| --- | --- | --- |
| C=CCn1c(CCC(O)COCCCCC)n[nH]c1=S (stereo unspecified) |  | inactive: 1.03% |
| O=C(/C=C/c1ccccc1)N/C(=C/c1ccccc1)C(=O)Nc1ccc(C(=O)O)cc1 |  | inactive: -4.43% |
| S=C(N/N=C/c1ccc(Br)cc1)N1CCCCC1 | inconclusive: 31.6 µM [inhibitor, single point] |  |
| N#CC1=C(N)Oc2cc(N)ccc2C1C1CC=CCC1 (stereo unspecified) | inconclusive: 7.08 µM [inhibitor, single point] |  |
| C=CCn1c(NC(=O)c2ccc(Br)o2)c(C(=O)OCC)sc1=S |  | inactive: 4.35% |
| O=C(Cc1ccc(-n2c(=O)c3sccc3n(CC(=O)Nc3ccccc3)c2=O)cc1)NCc1ccco1 | inconclusive: 39.8 µM [inhibitor, single point] |  |
| CS(=O)(=O)c1ccc(C(=O)OCC(=O)NC(=O)C2CCCCC2)cc1[N+](=O)[O-] | inconclusive: 12.6 µM [inhibitor, partial curve] |  |
| CCc1ccc(OCC(=O)c2c(O)c3ccccc3oc2=O)cc1 |  | inactive: 8.13% |
| O=C(/C=C/c1ccco1)N/C(=C\c1ccco1)C(=O)NCCc1nc2ccccc2[nH]1 | inconclusive: 31.6 µM [inhibitor, single point] |  |
| Cc1ccc(-n2nc(C)c3c2OC(N)=C(C#N)C3c2ccoc2)cc1 (stereo unspecified) | inconclusive: 28.2 µM [inhibitor, single point] |  |
| CCOc1ccc(C(=O)OCC(=O)NCc2ccco2)cc1OCC | inconclusive: 25.1 µM [inhibitor, single point] |  |
| CCOC(=O)c1[nH]c(C)c(C(=O)Nc2ccc(C)cc2C)c1C | inconclusive: 31.6 µM [inhibitor, single point] |  |
| O=c1cc2c(=O)oc3cc(O)c(O)oc3c2c(O)c1O | active: 0.316 µM |  |
| COc1ccc2oc(C(=O)Nc3ccc(N4CCOCC4)cc3)c(C)c2c1 | inconclusive: 31.6 µM [inhibitor, single point] |  |
| CCOc1ccccc1NC(=O)Cn1nnc(C(=O)NCc2ccco2)c1N | inconclusive: 35.5 µM [inhibitor, single point] |  |
| N#CCCn1cc(/C=C2\NC(=S)N(c3ccccc3)C2=O)c(-c2ccc(-c3ccccc3)cc2)n1 |  | inactive: -13.7% |
| Cn1cccc1CC(=O)N/N=C/c1cc([N+](=O)[O-])ccc1Cl | inconclusive: 28.2 µM [inhibitor, single point] |  |
| N#CC1=C(SCC(=O)c2cc3ccccc3oc2=O)NC(=O)C(C#N)C12CCCC2 (stereo unspecified) | inconclusive: 5.01 µM [inhibitor, single point] |  |
| O=C(Nc1cnc2sccn2c1=O)c1ccccc1Cl | inconclusive: 0.794 µM [inhibitor, single point] |  |
| Cc1cccc(C)c1C(=O)N[C@@H](Cc1ccccc1)C(=O)O | inconclusive: 4.47 µM [inhibitor, single point] |  |
| O=C(COC(=O)CNC(=O)c1ccccc1)Nc1ccc2c(c1)OCO2 | inconclusive: 0.355 µM [inhibitor, full curve, poor fit] |  |
| COC(=O)C1=C(C)N(Cc2cccnc2)C(=O)/C1=C\c1cccs1 | inconclusive: 25.1 µM [inhibitor, single point] |  |
| COc1ccc(-c2ccccc2)cc1NCc1ccc(OC)c(OC)c1 | inconclusive: 25.1 µM [inhibitor, partial curve, poor fit] |  |

Source: PubChem BioAssay AID485360 (National Center for Advancing Translational Sciences (NCATS), 2010)
